Reference: PubChem BioAssay AID624296 (National Center for Advancing Translational Sciences (NCATS), 2012)
The campaign covered roughly 350,000 compounds. About 9,900 (2.8%) were called active. This list was built around the results that the source calls inconclusive (neither active nor inactive); the mix of calls is not that of the screen. Calls follow the shape of the dose curve; as a rule, active = well fitted activation curve with a large enough effect; inconclusive = small, poorly fitted or top-dose-only effect; inactive = no such curve, though single readings can be large or run the other way. No potency is given beside an inconclusive call; the fits are too rough.
Potency is read from the fitted curve at half-maximal effect; tags tell the direction and shape of the fitted curve.

Assay: A quantitative high throughput screen for small molecules that induce DNA re-replication in MCF 10a normal breast cells. Also: nearly all actives have a fitted effect of over 50% in size. As to activity, positive = re-replication: % of control where 0% means no effect.
Conditions: MCF 10A DNA re-replication, Hoechst nuclear intensity, 48 h; activity, positive = re-replication: at 46.1 µM (top of the series)
For COCCn1c(SCCCc2ccccc2)nc2c1c(=O)[nH]c(=O)n2C, the “activity, positive = re-replication” value was inactive: 2.76%. In the case of CC1CCC(CC(=O)O)(C(=O)O)CC1 (stereo unspecified), the “activity, positive = re-replication” value was inactive: 0.321%. With O=C(Nc1ccc2c(c1)CCC2)c1cccc(OC(F)F)c1 the “activity, positive = re-replication” value was inactive: 0.198%. For Oc1ccc(N=Nc2ccccc2)o1, the Potency was inconclusive [activator, single point]. For O=C(CCNc1n[nH]c(=O)[nH]c1=O)N/N=C/c1ccc(Cl)cc1, the Potency was inconclusive [activator, single point]. For Cc1cc(Nc2nnnn2-c2ccccc2)n(-c2ccc(Cl)cc2)n1, the Potency was inconclusive [activator, partial curve]. In the case of COc1ccc(N(C)S(=O)(=O)c2cccc(C(=O)OCC(=O)N3CC(C)CC(C)C3)c2)cc1 (stereo unspecified), the Potency was inconclusive [activator, partial curve, poor fit]. In the case of CC(C)(C)NC(=O)C(c1ccccc1)N(Cc1ccco1)C(=O)c1csnn1 (stereo unspecified), the “activity, positive = re-replication” value was inactive: 0.36%. In the case of COc1ccc(OC)c2sc(NNC(=O)C3COc4ccccc4O3)nc12 (stereo unspecified), the Potency was inconclusive [activator, single point]. With COc1cc(/C=N/NC(=O)c2sc(N)c(C#N)c2C)cc(Br)c1O the Potency was inconclusive [activator, single point]. For CC(C)OCCCNC(=O)CCCC(=O)Nc1ccc(OCCc2ccccc2)cc1, the “activity, positive = re-replication” value was inactive: -1.38%. In the case of CCOC(=O)C1=C(c2ccccc2)NC(SCC(=O)Nc2cccc(C)c2)=C(C#N)C1c1ccco1 (stereo unspecified), the Potency was inconclusive [activator, full curve, poor fit]. With COc1ccc(-c2oc3ccc(-c4cc(OC)c(OC)c(OC)c4)cc3c2-c2ccc(OC)cc2)cc1 the Potency was inconclusive [activator, full curve]. For Cc1ccc(/C=N/Nc2cc(C)nc(NCc3ccccc3)n2)cc1, the Potency was inconclusive [activator, single point]. With O=C(NCc1ccco1)C(c1cccs1)N(C(=O)Cc1cccs1)c1ccccc1 (stereo unspecified) the Potency was inconclusive [activator, partial curve, poor fit]. For CC12CCC(C(=NO)C1=O)C2(C)C (stereo unspecified), the “activity, positive = re-replication” value was inactive: -2.27%. With O=C(CSc1nc(-c2ccccc2)nc2c1CCCC2)N1CCOCC1 the Potency was inconclusive [activator, partial curve, poor fit]. With CN(O)/C=C/C(=O)c1ccc(Br)cc1 the Potency was inconclusive [activator, single point]. In the case of CC(C)(C)n1nnnc1C(c1ccc(Cl)cc1)N(Cc1cccnc1)Cc1ccco1 (stereo unspecified), the Potency was inconclusive [activator, single point]. With COc1ccccc1-c1cc(C(=O)N/N=C/c2cccs2)c2ccccc2n1 the Potency was active: 14.1 µM. With CC(C)OCCCNC(=O)Cn1ccc2cc(S(=O)(=O)N3CCCCC3)ccc21 the “activity, positive = re-replication” value was inactive: 8.43%. With CCc1nnc(NC(=O)c2ccc(S(=O)(=O)NC3CCCCC3)cc2)s1 the Potency was inconclusive [activator, partial curve, poor fit]. In the case of O=C(NS(=O)(=O)c1ccc2c(c1)OCCO2)c1ccccc1, the “activity, positive = re-replication” value was inactive: -16.6%. In the case of N=c1oc2ccc3ccccc3c2cc1-c1nc(-c2ccccc2)cs1, the Potency was inconclusive [activator, full curve]. With O=C(CCC(=O)N(CC(=O)NC1CCCC1)c1ccc(F)cc1)Nc1nccs1 the “activity, positive = re-replication” value was inactive: -10.7%. With CCOC(=O)C(=O)NNc1ccc(F)cc1 the Potency was inconclusive [activator, single point]. In the case of CSc1nsc(SCC(=O)Nc2nncs2)n1, the Potency was inconclusive [activator, partial curve, poor fit]. In the case of O=C(CNC(=S)N(Cc1ccc(F)cc1)C1CCCCC1)NC1CC1, the Potency was inconclusive [activator, single point]. In the case of CCSCCc1nnc(NC(=O)Nc2cccc(C(F)(F)F)c2)s1, the Potency was inconclusive [activator, full curve, poor fit]. With Cc1ccc(C(=O)Nc2ccc(SC(F)F)cc2)s1 the “activity, positive = re-replication” value was inactive: -26.2%. For Cc1ccc(OCC(=O)Nc2cc(C(=O)O)cc(C(=O)O)c2)cc1C, the Potency was inconclusive [activator, single point]. In the case of c1ccc(CNCC2COc3ccccc3O2)cc1 (stereo unspecified), the “activity, positive = re-replication” value was inactive: -0.841%. For CNc1nnc(CSc2nc3ccccc3s2)s1, the Potency was inconclusive [activator, partial curve, poor fit]. With O=C(Nc1cc(-c2ccccc2)[nH]n1)c1ccccc1 the Potency was inconclusive [activator, full curve]. With CC(C(=O)NNS(=O)(=O)c1cccc(C(F)(F)F)c1)n1nnc(N2CCOCC2)n1 (stereo unspecified) the “activity, positive = re-replication” value was inactive: 0.494%. In the case of CCC(=O)c1ccc(OCC(=O)N(CC)CC(=O)Nc2ccccc2OC)cc1, the “activity, positive = re-replication” value was inactive: -6.46%. In the case of CCn1c(C)nc2cc(C(=O)NNC(=S)Nc3ccccc3OC)ccc21, the “activity, positive = re-replication” value was inactive: -5.33%. For Cc1cccc(Cn2c(=O)n(CCCC(=O)NCc3ccco3)c(=O)c3ccccc32)c1, the Potency was inconclusive [activator, full curve]. For CCOc1c(/C=C(\C#N)C(N)=O)c2ccccc2n1CC, the Potency was inconclusive [activator, partial curve, poor fit]. For Cc1ccc(-n2nc3cc(Cl)c(NC(=O)c4ccco4)cc3n2)cc1, the Potency was inconclusive [activator, partial curve, poor fit]. With CCCCC(=O)O[C@]1(C(=O)CO)CC[C@H]2[C@@H]3CCC4=CC(=O)CC[C@]4(C)[C@H]3[C@@H](O)C[C@@]21C the Potency was inconclusive [activator, full curve, poor fit]. With Cc1cc(CN2CCCC(C(=O)Nc3cccc(-n4cccn4)c3)C2)cc(C)c1O (stereo unspecified) the “activity, positive = re-replication” value was inactive: 13.9%. For CC(=O)c1ccc(N2CCN(c3ccc(S(=O)(=O)NCCCN(C)C)cc3[N+](=O)[O-])CC2)cc1, the Potency was inconclusive [activator, partial curve, poor fit]. With CC1CCCCN1CC(O)COc1ccc(OCC(O)CN2CCCCC2C)cc1 (stereo unspecified) the Potency was inconclusive [activator, single point]. In the case of O=C(Oc1ccccc1C(=O)Oc1ccccc1)c1ccco1, the Potency was inconclusive [activator, single point]. In the case of Cc1oc2c(C)c3oc(=O)c4c(c3cc2c1C)CCCC4, the Potency was inconclusive [activator, single point]. For Cc1ccc(N2C(=O)CC(n3ccnc3)C2=O)cc1C (stereo unspecified), the “activity, positive = re-replication” value was inactive: -14%. In the case of O=C(NCc1csc(-c2cccs2)n1)c1cccc(Cl)c1, the “activity, positive = re-replication” value was inactive: -6.81%. For O=C(CNc1cccc(S(=O)(=O)N2CCCCC2)c1)Nc1ccccc1F, the Potency was inconclusive [activator, single point]. In the case of CCOc1ccc(NC(=O)CCC(=O)NNC(=O)COc2ccc(C)cc2)cc1, the “activity, positive = re-replication” value was inactive: -4.45%. With COC(=O)c1c(C(=O)OC)c(-c2ccc(Cl)c(Cl)c2)n2c1CCC2 the Potency was inconclusive [activator, single point]. For C#CCOc1c(Cl)cc(/C=C2/C(=O)ON=C2C)cc1OCC, the “activity, positive = re-replication” value was inactive: -2.16%. With O=C(CCc1ccccc1)NCC(c1ccco1)N1CCc2ccccc21 (stereo unspecified) the Potency was active: 4.61 µM. For COCc1cc(C)nc2sc(C(=O)NN)c(-n3cccc3)c12, the “activity, positive = re-replication” value was inactive: -1.63%. With COc1ccc(NC(=O)NNC(=O)COc2ccc(Cl)cc2C)cc1OC the Potency was inconclusive [activator, full curve, poor fit]. With Oc1c(Cl)cc(Cl)cc1/C=N/NC(=S)NC1CC2C=CC1C2 (stereo unspecified) the Potency was active: 7.31 µM. In the case of O=C(Nc1ccc(Br)cc1)c1cccc(S(=O)(=O)Nc2ccccn2)c1, the Potency was inconclusive [activator, single point]. For CCCc1sc(N/N=C/c2ccccn2)nc1-c1ccc(Br)cc1, the Potency was inconclusive [activator, partial curve, poor fit]. With Cc1cc(NC(=O)C(C)SCC(=O)Nc2ccccc2N2CCCCC2)no1 (stereo unspecified) the Potency was inconclusive [activator, single point]. For OCCN1CCN(c2ncnc3c2c(-c2ccccc2)cn3-c2ccc(F)cc2)CC1, the “activity, positive = re-replication” value was inactive: 0.695%. In the case of Cc1cc(C)c(OCCOCCN2CCCC2)c(C)c1, the Potency was inconclusive [activator, partial curve]. In the case of O=C(CCc1ccccc1)Nc1nnc(-c2ccc3c(c2)OCCO3)o1, the Potency was inconclusive [activator, partial curve, poor fit]. For COC(=O)c1sc(N)c(C(=O)OC)c1CSc1nc2sc3c(c2c(=O)n1C)CCC3, the Potency was inconclusive [activator, partial curve]. With CC(=O)c1ccc2c(c1)Cc1cc(C(C)=O)ccc1-2 the “activity, positive = re-replication” value was inactive: -4.31%. For Fc1ccc(-c2cc(C(F)(F)F)nc(N3CCCCC3)n2)cc1, the Potency was inconclusive [activator, partial curve, poor fit]. For Cc1c(Cl)cccc1NC(=O)CSc1nccn1C, the “activity, positive = re-replication” value was inactive: 0.145%. In the case of CCn1c(SCC(=O)Nc2oc(-c3ccccc3)c(-c3ccccc3)c2C#N)nnc1-c1ccncc1, the Potency was active: 23.1 µM. With CC(C)(C)OC(=O)N1CCC(C(=O)Nc2cccc(C(=O)NCCc3ccccc3)c2)CC1 the Potency was inconclusive [activator, full curve, poor fit]. With O=C(COC(=O)c1cnc(Cl)c(Cl)c1)NCc1cccs1 the Potency was inconclusive [activator, single point]. With Cc1ccccc1-n1nc(C)c2cc(C(=O)NC3CC3)sc21 the Potency was inconclusive [activator, partial curve, poor fit]. In the case of O=C(NCc1cccs1)c1cccc(Nc2nc3ccc(Br)cc3[nH]2)c1, the Potency was inconclusive [activator, single point].
